SMILES strings stand for the structures. Screen size: about 52,000 compounds; about 1,700 (3.3%) were called active. Rule as the data show it: active = survival mostly below about 52% (no sharp cut-off); inactive = mostly above about 56%. Some of the results follow.

For the test, the system named is Wild type. In words: growth inhibition of S. aureus wild type versus tarO mutant, primary screen, teichoic acid synthesis inhibitors, RN4220, OD600 (AID 463173). The settings on record: S. aureus RN4220 wild type/DeltatarO growth, OD600, 18 h, stronger effect = lower value, screened at 18.75 µg/mL (by protocol).
Regarding `Cc1ccc(N)cc1N(C)C`, the survival was inactive: 93%.
Then `O=C(CSc1cn(CCNC(=O)c2cccc(C(F)(F)F)c2)c2ccccc12)Nc1ccc2c(c1)OCCO2`, with inactive: 73%.
In the case of `COc1ccc(C(=O)Nc2ccc3nc(SCC(=O)N(C)c4ccccc4)sc3c2)cc1`, the survival is inactive: 113%.
Then `CSc1ncc(C(=O)NCc2ccc(C)cc2)c(C)n1`, with inactive: 73%; and `CC(C)N(C(=O)Cn1cc(S(=O)(=O)Cc2ccc(Br)cc2)c2ccccc21)C(C)C`, with inactive: 80%.
Then `O=C(c1ccc(F)cc1)N1CCC(c2nc3ccccc3s2)CC1`, with inactive: 90%.
Under `COc1ccc(NC2=C(c3ccccc3)C(=O)c3ccccc32)cc1Cl` stands inactive: 144%; under `CC1CCN(S(=O)(=O)c2ccc3c(c2)N(CC(=O)NCCCN2CCCCC2)C(=O)CS3)CC1`, inactive: 75%.
For the compound `Cc1ccc(CNC(=O)c2cc(-c3ccc(C)cc3)nc3n[nH]c(-c4cccc([N+](=O)[O-])c4)c23)cc1`, the survival is inactive: 74%.
Consider `Cc1c(C(=O)Nc2ccc(F)c(C(F)(F)F)c2)sc2nc(-c3ccccc3)cn12`, for which the survival is inactive: 119%.
With `CCOc1ccc(S(=O)(=O)NCCc2c(C)[nH]c3c(Cl)cccc23)cc1C`, the survival was inactive: 51%.
Under `COc1ccc(CNC(=O)c2ccc3c(c2)N(Cc2c(F)cccc2Cl)C(=O)CS3)cc1` stands inactive: 136%; under `CCOC(=O)CSc1nc2ccc(NC(=O)c3cccc(F)c3)cc2s1`, inactive: 87%; under `NC(=O)COc1ccc(/C=N/NC(=O)c2ccc(CN3CCOCC3)cc2)cc1`, inactive: 101%.
Turning to `O=C(CCn1cccn1)Nc1ccc(Br)cc1F`, the survival is inactive: 78%.
On to `Cc1cccc(-c2nc3c4ccccc4nc(NCCc4ccccc4)n3n2)c1`, for which the survival was active: 3%.
Consider `CCOc1ccc(NS(=O)(=O)c2ccc3[nH]c4c(c3c2)CCCCC4)cc1`, for which the survival was inactive: 82%.
Under `O=S(=O)(NCc1nc2cccnc2n1Cc1ccccc1Cl)c1ccc2c(c1)CCCC2` stands inactive: 73%.
Take `O=c1c(NCc2cccs2)nccn1-c1ccc(F)cc1`: the survival is inactive: 73%.
On to `COc1cccc(NC(=O)CN(CCc2ccccc2)S(=O)(=O)c2ccc(Cl)cc2)c1`, for which the survival is inactive: 72%.
In the case of `Cc1nc2ccccc2n1CCc1nc2c3ccccc3nc(SCc3ccc(C#N)cc3)n2n1`, the survival is inactive: 68%.
Then `CCN(CC)CCCNC(=O)Cc1csc2nc(-c3ccc(Cl)cc3)cn12`, with inactive: 115%; and `CCOc1ccccc1NS(=O)(=O)c1ccc2c(c1)oc(=O)n2C`, with inactive: 82%; and `Cc1cc2c(n1-c1ccc(C(=O)NCc3ccccc3Cl)cc1)CCCC2`, with inactive: 88%.
Then `COc1ccccc1NC(=S)N(CCO)Cc1cc2cc3c(cc2[nH]c1=O)OCCO3`, with inactive: 110%; and `COc1ccccc1N1CCN(C(=O)c2c(C)oc3ncn(C)c(=O)c23)CC1`, with inactive: 85%; and `O=C(CCSCc1ccccc1Cl)NCc1ccc(F)cc1Cl`, with active: 0%.
Under `Cc1cccc(CCNC(=O)c2cc3c(=O)n(C)c4ccccc4c3n2C)c1` stands inactive: 69%; under `O=C(CN1C(=O)CCn2nc(-c3ccccc3)cc21)NCc1ccc(Cl)cc1`, active: -3%.
On to `CCc1cc2c(cc3c(=O)n(CCCC(=O)NCc4cccc(Cl)c4)ncn32)s1`, for which the survival is inactive: 76%.
For the compound `COc1ccc(NC(=O)NC2COc3ccccc3C2)cc1Cl` (stereo unspecified), the survival is inactive: 65%.
Turning to `Cc1ccc(CN2C(=O)c3ccccc3CC2(C)C(=O)NC2CCCCC2)cc1` (stereo unspecified), the survival is inactive: 84%.
Then `Cc1cccc(N2CCN(C(=O)c3noc4c3COc3ccc(C)cc3-4)CC2C)c1` (stereo unspecified), with inactive: 80%.
Then `CC(C)c1cnc2c(c1SCC(=O)NCc1ccccc1Cl)c(=O)n(C)c(=O)n2C`, with inactive: 99%.
In the case of `O=C(c1ccc2c(c1)N(Cc1cccc(F)c1)C(=O)c1ccccc1S2)N1CCCC1`, the survival was inactive: 92%.
Take `COc1ccc(C(CC(=O)Nc2ccc(C(C)=O)cc2)N2Cc3ccccc3C2=O)cc1` (stereo unspecified): the survival was inactive: 88%.
Under `Cc1cccc2c1-c1sc(C(=O)N(C)c3cccc(Cl)c3)cc1CO2` stands active: 0%; under `CCOc1ccccc1C(=O)NC1(C(F)(F)F)C(=O)Nc2c1c(=O)[nH]c(=O)n2-c1ccc(F)cc1` (stereo unspecified), inactive: 64%; under `CSc1ccc(CCNC(=O)CCc2c(C)nc3ncnn3c2C)cc1`, inactive: 71%.
Under `Cn1nnnc1SCCNCc1cc(Br)ccc1OCc1ccccc1Cl` stands inactive: 59%; under `COc1cccc(OC)c1C(=O)NCCc1csc(-c2ccc(Cl)cc2)n1`, inactive: 84%.
Then `COC(=O)c1c(-c2cccs2)csc1NC(=O)COc1ccc(C)cc1`, with inactive: 116%; and `Cc1ccc(C(=O)Nc2cccc3cccnc23)cc1Cl`, with inactive: 75%.
Turning to `CCOc1ccc(NC(=O)COc2ccc(S(=O)(=O)NC3CCCCC3)cc2)cc1`, the survival is inactive: 60%.
Under `CN1CCN(c2ncc3c(n2)CCN(Cc2ccc(Br)s2)C3)CC1` stands inactive: 64%; under `CCOC(=O)c1c(Nc2ccc(OC)cc2)nnc(-c2ccccc2)c1-c1ccccc1`, active: 5%.
As to `COc1ccc(-c2csc(=Nc3ccccc3)n2CCO)cc1F`, the survival is inactive: 63%.
Take `O=C(N/N=C/C=C/c1ccco1)c1cccs1`: the survival is inactive: 116%.
Then `CCCOc1ccc(-c2nc(SCC(=O)c3ccc(Cl)cc3)n[nH]2)cc1`, with inactive: 151%; and `CC(=O)c1ccc(N2CCN(C(=O)C3CCN(S(=O)(=O)c4cn(C)cn4)CC3)CC2)cc1`, with inactive: 73%.
Then `Cn1c(=O)c2sccc2n2c(CCC(=O)NCc3ccc(Cl)cc3)nnc12`, with inactive: 144%.
Consider `Cc1cccn2c(=O)c(C(=O)NCc3cccc(F)c3)cnc12`, for which the survival is inactive: 79%.
Then `CCOc1ccc(CNC(=O)Cc2ccc(NC(=O)N3CCSc4ncccc43)cc2)cc1`, with inactive: 72%; and `CCC(=O)N(Cc1cc(=O)[nH]c2ccccc12)C1CCCCC1`, with inactive: 106%.
Under `Cc1cccc(-c2nc3scc(CCNS(=O)(=O)c4ccc5c(c4)OCCO5)n3n2)c1` stands inactive: 87%; under `Cc1ccc(Cl)cc1Nc1nn2c(=O)c3ccc(C(=O)NCc4ccc(F)cc4)cc3nc2s1`, inactive: 135%.
Under `COc1ccc(Nc2c(-c3cccc(O)c3)nc3cnccn23)cc1` stands inactive: 57%.
Regarding `CCOC(=O)N1CCc2c(sc3c2c(=O)n(-c2ccc(Cl)cc2)c(=O)n3CC(C)C)C1`, the survival was inactive: 78%.
Then `COc1ccc(-c2nc3cc(NC(=O)CSc4ccc(C)cc4)ccc3o2)cc1`, with inactive: 92%; and `CC(C)C(c1nnnn1Cc1ccccc1)N1CCC(C(N)=O)CC1` (stereo unspecified), with inactive: 98%.
With `COc1ccc(NC(=O)c2oc3ccccc3c2NC(=O)Cc2coc3c(C)c(C)ccc23)cc1`, the survival was inactive: 102%.
With `COc1ccccc1-c1cc(C(=O)NCc2ccccc2)c2c(-c3ccc(C)cc3)[nH]nc2n1`, the survival was inactive: 74%.
Under `O=C(Nc1ncc(Cc2ccccc2)s1)C1CCCO1` (stereo unspecified) stands inactive: 113%; under `CCc1ccc(NC(=O)Cn2ccn(-c3ccc(C)c(C)c3)c(=O)c2=O)cc1`, inactive: 120%; under `Cc1ccc(S(=O)(=O)c2nc(S(=O)(=O)c3ccccc3)sc2NCCCOC(C)C)cc1`, inactive: 83%.
Under `C=CCc1c(C)nc(SC)[nH]c1=O` stands inactive: 114%; under `Cc1c(Cl)cccc1NC(=O)CCS(=O)(=O)c1ccc2c(c1)CC(=O)N2C`, inactive: 85%.
Then `O=C(CSc1n[nH]c(-c2ccc(F)cc2)n1)NCCc1ccccc1`, with inactive: 120%; and `CCOc1ccc(NC(=O)/C(C#N)=C\c2ccc(-c3ccc(Cl)cc3)o2)cc1`, with inactive: 59%; and `COc1cccc(NC(=O)Cn2cc(C(=O)c3ccc(C)cc3)c(=O)c3cc(OC)ccc32)c1`, with inactive: 67%.
As to `Cc1ccccc1NC(=O)Cn1c(=O)n(Cc2ccc3c(c2)OCO3)c(=O)c2ccccc21`, the survival was inactive: 86%.
As for `CCN(CC)CCNC(=O)c1c2c(nc3ccccc13)C(=O)N(C1CCCCC1)C2`, the survival is inactive: 75%.
For the compound `Cc1ccc(S(=O)(=O)NCCc2cn3ccsc3n2)c(C)c1`, the survival was inactive: 81%.
Regarding `CCc1ccc(NC(=O)CN2C(=O)C3(SCC(=O)N3c3ccc(F)c(F)c3)c3ccccc32)cc1` (stereo unspecified), the survival was inactive: 125%.
Then `Cc1cc2ccccc2n1CCNC(=O)c1ccc(Br)cc1`, with inactive: 74%; and `CCc1nc2nc(C)cc(Nc3cccc(C)c3C)n2n1`, with inactive: 75%.
Then `Cc1cccc(C2CC(=O)Nc3cc4c(cc32)OCO4)c1` (stereo unspecified), with inactive: 89%.
Then `N#Cc1cc2c(nc1S(=O)(=O)Cc1ccccc1)CCCC2`, with inactive: 122%; and `COc1ccc(CNC(=O)CCc2c(C)c3cc4c(C)c(C)oc4cc3oc2=O)cc1OC`, with inactive: 111%.
With `CC(C)c1ccc(OCC(=O)N(Cc2cccs2)C2CCS(=O)(=O)C2)cc1` (stereo unspecified), the survival was inactive: 73%.
Then `COC(=O)c1ccc(NC(=O)CN2C(=O)CC(c3ccccc3)Sc3ccccc32)cc1` (stereo unspecified), with inactive: 93%; and `Cc1cc(C)n(C(C)CC(=O)Nc2ccc(C)c(N(C)C)c2)n1` (stereo unspecified), with inactive: 83%.
Then `C=C(C)CSc1nc(-c2ccccc2)cc(-c2ccc(OC)cc2)c1C#N`, with inactive: 75%.
As to `CCOc1cc(Cl)c(S(=O)(=O)n2ccnc2)cc1Cl`, the survival is inactive: 74%.
Then `Cc1nnc(N2CCC(C(=O)NCCC(C)C)CC2)c2nn(-c3ccc(Cl)cc3)c(C)c12`, with inactive: 74%; and `CCC(C(=O)N1CCN(c2ccccc2)CC1)n1c(C)c2cnn(-c3ccccc3)c(=O)c2c1C` (stereo unspecified), with inactive: 81%; and `O=C(NC1CCCC1)c1ccc2c(=O)n(Cc3ccccc3)c(SCc3cccc(F)c3)nc2c1`, with inactive: 68%.
With `CCN(CC)c1ccc(NC(=O)CCCN2C(=O)C(c3ccccc3)Oc3cccnc32)c(C)c1` (stereo unspecified), the survival was inactive: 87%.
Then `CCCCC1C(=O)NC(=Nc2nc(C)c3ccc(OC)cc3n2)NC1=O` (stereo unspecified), with inactive: 103%; and `Cc1ccc(N2CC(C(=O)Nc3ccc(N(C)C)cc3)CC2=O)cc1Cl` (stereo unspecified), with inactive: 69%; and `CSc1ccc(-c2nnc(NC(=O)c3ccc4c(c3)OCCO4)o2)cc1`, with inactive: 87%.

The values are drawn from PubChem BioAssay AID463173 (ICCB-Longwood Screening Facility, Harvard Medical School, 2010).
